Changes are numbered by the printed parent chain; changes in the protein carry UniProt numbers. Some of the results follow.
T1: RBFOX1 RRM (Homo sapiens, UniProt Q9NWB1 109-208)
T1 sequence: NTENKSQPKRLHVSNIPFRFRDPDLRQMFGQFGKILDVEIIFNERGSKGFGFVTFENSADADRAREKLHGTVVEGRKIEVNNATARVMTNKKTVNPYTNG

B1: UACUACU (DNA:RNA)
RNA: GGGAGACCGGAAUUCAGAUUGUCCUACUACUUUAAAUCCCGUCGUAGCCACCA
DNA 1: CAATCTGAATTCCGGTCTCCC
DNA 2: TGGTGGCTACGACGGGATT
B2: AGUACGU (DNA:RNA)
RNA: B1 RNA with U25A, A26G, C27U, U28A, A29C, C30G
DNA 1: CAATCTGAATTCCGGTCTCCC
DNA 2: TGGTGGCTACGACGGGATT
B3: CUCUUCU (DNA:RNA)
RNA: B1 RNA with U25C, A26U, A29U
DNA 1: CAATCTGAATTCCGGTCTCCC
DNA 2: TGGTGGCTACGACGGGATT
B4: GGGGUUA (DNA:RNA)
RNA: GGGAGACCGGAAUUCAGAUUGUCCGGGGUUAUUAAAUCCCGUCGUAGCCACCA
DNA 1: CAATCTGAATTCCGGTCTCCC
DNA 2: TGGTGGCTACGACGGGATT
B5: GGUAAUU (DNA:RNA)
RNA: B4 RNA with G27U, G28A, U29A, A31U
DNA 1: CAATCTGAATTCCGGTCTCCC
DNA 2: TGGTGGCTACGACGGGATT
B6: UCCUCGC (DNA:RNA)
RNA: B1 RNA with A26C, A29C, C30G, U31C
DNA 1: CAATCTGAATTCCGGTCTCCC
DNA 2: TGGTGGCTACGACGGGATT
B7: GAUGACG (DNA:RNA)
RNA: B1 RNA with U25G, C27U, U28G, U31G
DNA 1: CAATCTGAATTCCGGTCTCCC
DNA 2: TGGTGGCTACGACGGGATT
B8: AACGCAC (DNA:RNA)
RNA: B1 RNA with U25A, U28G, A29C, C30A, U31C
DNA 1: CAATCTGAATTCCGGTCTCCC
DNA 2: TGGTGGCTACGACGGGATT
B9: GAAGACA (DNA:RNA)
RNA: B4 RNA with G26A, G27A, U29A, U30C
DNA 1: CAATCTGAATTCCGGTCTCCC
DNA 2: TGGTGGCTACGACGGGATT
B10: GAUGAGA (DNA:RNA)
RNA: B4 RNA with G26A, G27U, U29A, U30G
DNA 1: CAATCTGAATTCCGGTCTCCC
DNA 2: TGGTGGCTACGACGGGATT
B11: CUCUCAU (DNA:RNA)
RNA: B1 RNA with U25C, A26U, A29C, C30A
DNA 1: CAATCTGAATTCCGGTCTCCC
DNA 2: TGGTGGCTACGACGGGATT
B12: UUGGCCU (DNA:RNA)
RNA: B1 RNA with A26U, C27G, U28G, A29C
DNA 1: CAATCTGAATTCCGGTCTCCC
DNA 2: TGGTGGCTACGACGGGATT
B13: CGGGACA (DNA:RNA)
RNA: B4 RNA with G25C, U29A, U30C
DNA 1: CAATCTGAATTCCGGTCTCCC
DNA 2: TGGTGGCTACGACGGGATT
B14: GUUGGGG (DNA:RNA)
RNA: B4 RNA with G26U, G27U, U29G, U30G, A31G
DNA 1: CAATCTGAATTCCGGTCTCCC
DNA 2: TGGTGGCTACGACGGGATT
B15: UAAAAGA (DNA:RNA)
RNA: B1 RNA with C27A, U28A, C30G, U31A
DNA 1: CAATCTGAATTCCGGTCTCCC
DNA 2: TGGTGGCTACGACGGGATT
B16: AUGUAUU (DNA:RNA)
RNA: B1 RNA with U25A, A26U, C27G, C30U
DNA 1: CAATCTGAATTCCGGTCTCCC
DNA 2: TGGTGGCTACGACGGGATT
B17: CUCCGUU (DNA:RNA)
RNA: B1 RNA with U25C, A26U, U28C, A29G, C30U
DNA 1: CAATCTGAATTCCGGTCTCCC
DNA 2: TGGTGGCTACGACGGGATT
B18: CUCCGGG (DNA:RNA)
RNA: B1 RNA with U25C, A26U, U28C, A29G, C30G, U31G
DNA 1: CAATCTGAATTCCGGTCTCCC
DNA 2: TGGTGGCTACGACGGGATT
B19: GAUACAC (DNA:RNA)
RNA: B4 RNA with G26A, G27U, G28A, U29C, U30A, A31C
DNA 1: CAATCTGAATTCCGGTCTCCC
DNA 2: TGGTGGCTACGACGGGATT
B20: AACCCGC (DNA:RNA)
RNA: B1 RNA with U25A, U28C, A29C, C30G, U31C
DNA 1: CAATCTGAATTCCGGTCTCCC
DNA 2: TGGTGGCTACGACGGGATT

target: T1, RBFOX1 RRM; assay: EMSA; HiTS-Eq, 1 nM pool, 10 min; buffer printed only for the single-RNA assays: 10 mM Tris pH 7.5, 150 mM NaCl, 3.4 mM EDTA, 0.001% NP-40, 30 C; details: tags: His6 N-terminal (pET28a); label: 5' 32P
Summary of the method: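 A pool of RNA with 7 randomized nucleotides, 5′-radiolabelled and with DNA-annealed flanks, was equilibrated at 1 nM for 10 min in 50 µL with purified RbFox RRM, wild type or mutant, across increasing protein concentrations. Free RNA was separated by 8% native PAGE, excised, reverse-transcribed, barcoded by PCR and sequenced. Relative association constants were obtained from read-count changes of each RNA species versus the control reaction and normalised to the cognate motif.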

Row | Binder | binding signal
1 | B1 | 0.00344 KA relative to UGCAUGU
2 | B2 | 0.00915 KA relative to UGCAUGU
3 | B3 | 0.00532 KA relative to UGCAUGU
4 | B4 | 0.0364 KA relative to UGCAUGU
5 | B5 | 0.00329 KA relative to UGCAUGU
6 | B6 | 0.00514 KA relative to UGCAUGU
7 | B7 | 0.0127 KA relative to UGCAUGU
8 | B8 | 0.0031 KA relative to UGCAUGU
9 | B9 | 0.00676 KA relative to UGCAUGU
10 | B10 | 0.0153 KA relative to UGCAUGU
11 | B11 | 0.00156 KA relative to UGCAUGU
12 | B12 | 0.0232 KA relative to UGCAUGU
13 | B13 | 0.015 KA relative to UGCAUGU
14 | B14 | 0.0116 KA relative to UGCAUGU
15 | B15 | 0.00608 KA relative to UGCAUGU
16 | B16 | 0.00316 KA relative to UGCAUGU
17 | B17 | 0.00719 KA relative to UGCAUGU
18 | B18 | 0.00445 KA relative to UGCAUGU
19 | B19 | 0.00177 KA relative to UGCAUGU
20 | B20 | 0.00101 KA relative to UGCAUGU
